Results from PubChem BioAssay (NCATS).
“And” between values parts separate entries of the source, which are not always exact repeats. Equal entries are not always repeated. The shares of active, inactive and inconclusive entries below differ from those in the screen. For some assays here: Potencies beside an inconclusive call are fits to weak or partial responses and may not hold up. The source made the active and inactive calls. Unless noted, calls follow the shape of the dose curve; as a rule, active = well fitted curve in the direction sought with a large enough effect; inconclusive = small, poorly fitted or top-dose-only effect, or another doubt; inactive = no such curve, though single readings can be large; an effect the other way counts as inactive or inconclusive.

Experiments:
[1] = molecular target: 3',5'-cyclic-AMP phosphodiesterase 4B (Homo sapiens) (UniProt Q07343); test: qHTS Assay for Inhibitors of PDE-IV (AID 607; active = well fitted activation curve with a large enough effect in the main read-out, with a control signal flat, not every such curve was filed as active; inconclusive = small, poorly fitted or top-dose-only effect, or effect the other way, or a change in a side signal; also: potency is read from the fitted curve at half-maximal effect); settings: HEK293 ACTOne CNG channel cells, membrane potential fluorescence; activation (PDE inhibition): at 22.9 µM (top of the series)
Chain of UniProt Q07343 (Q07343 whole entry, looked up): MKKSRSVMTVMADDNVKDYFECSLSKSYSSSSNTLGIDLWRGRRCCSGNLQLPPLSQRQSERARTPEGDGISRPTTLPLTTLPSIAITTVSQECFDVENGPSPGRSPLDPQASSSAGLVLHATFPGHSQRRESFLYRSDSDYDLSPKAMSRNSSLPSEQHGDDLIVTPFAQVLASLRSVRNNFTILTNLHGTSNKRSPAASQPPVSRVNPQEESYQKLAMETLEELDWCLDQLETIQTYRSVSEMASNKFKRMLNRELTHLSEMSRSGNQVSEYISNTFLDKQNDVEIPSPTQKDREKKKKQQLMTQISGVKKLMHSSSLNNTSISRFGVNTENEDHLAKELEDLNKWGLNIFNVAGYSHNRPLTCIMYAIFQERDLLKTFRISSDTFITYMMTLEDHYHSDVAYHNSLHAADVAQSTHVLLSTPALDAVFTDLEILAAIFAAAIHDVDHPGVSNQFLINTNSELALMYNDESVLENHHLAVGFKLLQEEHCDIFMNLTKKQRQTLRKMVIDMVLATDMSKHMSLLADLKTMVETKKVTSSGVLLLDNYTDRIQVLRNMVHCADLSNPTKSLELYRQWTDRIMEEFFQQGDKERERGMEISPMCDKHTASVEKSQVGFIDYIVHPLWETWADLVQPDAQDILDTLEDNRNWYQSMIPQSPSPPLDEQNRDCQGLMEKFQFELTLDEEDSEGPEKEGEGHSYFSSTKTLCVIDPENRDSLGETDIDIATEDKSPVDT
How it was run: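 ACTOne HEK293 cells carry a modified cAMP-gated CNG channel and express endogenous PDE4; plated 1000 cells/well, compounds up to 22.9 uM final. Membrane-potential dye fluorescence (ex 535/em 590) was read; parental cells received 10 uM forskolin + 100 uM RO 20-1724.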

[2] = qHTS Assay for Identification of Small Molecule Antagonists for NFkB Signaling Pathway (AID 895; active = well fitted inhibition curve with a large enough effect in the signal ratio, with a control signal flat, not every such curve was filed as active; inconclusive = small, poorly fitted or top-dose-only effect, or effect the other way, or a change in a side signal; the % refers to the signal ratio; also: potency is read from the fitted curve at half-maximal effect); settings: NFkB beta-lactamase reporter cells, FRET ratio 460/530, stimulated with 10 pM TNF alpha; activity change, negative = inhibition: at 38.3 µM (top of the series)
How it was run: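 ME-180 NFkB-bla cells (beta-lactamase under NFkB response element), plated overnight, treated with compound then 10 pM TNF alpha (about EC50) for 5 hrs at 37 C. LiveBLAzer FRET read at 460/530 nm emission, 405 nm excitation.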

[3] = qHTS Assay for Identification of Small Molecule Antagonists for Thrombopoietin (TPO) Signaling Pathway (AID 918); settings: TPO-dependent cell signaling reporter, antagonist mode; activity change, negative = inhibition: at 38.5 µM (top of the series); also: nearly all actives have a fitted effect of over 60% in size
How it was run: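 Murine Ba/F3 cells expressing human TPO receptor and a Glycoprotein IIb promoter-luciferase reporter, IL-3-starved overnight, treated with compound plus TPO at EC50 (26 pM final). After 24 h at 37 C, luminescence read to detect inhibitors.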

[4] = molecular target: Muscarinic acetylcholine receptor M1 (Rattus norvegicus) (UniProt P08482); test: qHTS Assay for Antagonists of Acetylcholine Muscarinic M1 Receptor: Kinetic Measurement of Intracellular Calcium Response (AID 943); settings: M1-expressing cells, kinetic intracellular calcium fluorescence; series mostly up to 35.3 µM; also: potency is read from the fitted curve at half-maximal effect; nearly all actives have a fitted effect of over 75% in size
Chain of UniProt P08482 (P08482 whole entry, looked up): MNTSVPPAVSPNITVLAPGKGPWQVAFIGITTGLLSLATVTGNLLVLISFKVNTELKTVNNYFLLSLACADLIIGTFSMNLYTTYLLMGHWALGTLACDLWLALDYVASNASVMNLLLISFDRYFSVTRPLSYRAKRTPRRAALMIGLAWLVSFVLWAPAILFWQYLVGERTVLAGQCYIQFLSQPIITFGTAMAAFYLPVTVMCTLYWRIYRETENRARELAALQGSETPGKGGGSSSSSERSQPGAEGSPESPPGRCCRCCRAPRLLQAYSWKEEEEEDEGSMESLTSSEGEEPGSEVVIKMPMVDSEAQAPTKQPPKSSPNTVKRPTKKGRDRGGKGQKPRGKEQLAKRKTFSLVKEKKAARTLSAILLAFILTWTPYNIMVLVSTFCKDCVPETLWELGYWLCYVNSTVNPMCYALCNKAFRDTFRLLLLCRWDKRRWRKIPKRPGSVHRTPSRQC
How it was run: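 CHO cells expressing rat M1 receptor, Fluo-4 loaded, preincubated 10 min with compound, then stimulated with EC80 carbachol (100 nM final). Kinetic calcium fluorescence over 4 min; response taken as peak over basal signal.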

[5] = qHTS Assay for Lipid Storage Modulators (AID 1519; calls by dose curve; also: % is scaled to controls: 0 for no effect and ±100 for the full control effect); settings: Drosophila S3 cells, BODIPY lipid droplet/cell ratio, laser cytometry, cells loaded with oleic acid; activity change, negative = inhibition: at 57.5 µM (top of the series) unless noted
How it was run: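 Cells seeded at 5,000 per well were treated with compounds over a concentration series and loaded with oleic acid (400 uM, as added). Lipid droplet fluorescence (488 nm excitation, 500-530 nm channel) was read by laser-scanning cytometry and normalized to 20 uM Triacsin C.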

[6] = molecular target: Endonuclease 4 (Escherichia coli (strain K12)) (UniProt P0A6C1); test: Counterscreen for APE1 Inhibitors: qHTS Validation Assay for Inhibitors of Endonuclease IV (AID 1708); also: potency is read from the fitted curve at half-maximal effect; settings: E. coli endonuclease IV, DNA cleavage fluorescence; series mostly up to 57.1 µM
How it was run: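 E. coli EndoIV at 2 nM final, preincubated 15 min at room temperature with compound, then 50 nM TAMRA/BHQ-2 THF abasic-site duplex added. Buffer: 50 mM Tris-HCl pH 7.5, 50 mM NaCl, 2 mM MgCl2, 1 mM DTT, 0.01% Tween-20. Kinetic fluorescence increase, third minus first read.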

[7] = qHTS for differential inhibitors of proliferation of Plasmodium falciparum line GB4 (AID 1816); settings: Potency: Plasmodium falciparum GB4 proliferation inhibition; series mostly up to 28.7 µM;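 also: potency is read from the fitted curve at half-maximal effect; parasite growth measured after 72 h incubation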
[8] = qHTS for differential inhibitors of proliferation of Plasmodium falciparum line W2 (AID 1883); settings: Potency: Plasmodium falciparum W2 proliferation inhibition; series mostly up to 28.7 µM;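 also: potency is read from the fitted curve at half-maximal effect; parasites grown with compound for 72 h before lysis and staining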
[9] = qHTS for differential inhibitors of proliferation of Plasmodium falciparum line HB3 (AID 1886); settings: Potency: Plasmodium falciparum HB3 proliferation inhibition; series mostly up to 28.7 µM;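 also: potency is read from the fitted curve at half-maximal effect; parasites grown with compound for 72 h before SYBR Green readout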
[10] = qHTS Assay for Modulators of Human Peripheral Myelin Protein 22 (PMP22) Expression/Activity (AID 1967; active = well fitted curve in the direction sought with a large enough effect in the signal ratio; inconclusive = small, poorly fitted or top-dose-only effect, or effect the other way, or a change in a side signal; inactive = no such curve, though single readings can be large or run the other way; the % refers to the signal ratio; also: potency is read from the fitted curve at half-maximal effect); settings: Cell-based PMP22 reporter, dual-color luciferase ratio, mouse Pmp22 promoter in mouse Schwann cells; activity change (ratio): at 115 µM (top of the series), 0% = compound-free control cells
How it was run: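 Mouse MSC80 Schwann line, Pmp22 promoter–CBG68 reporter, EF-alpha–CBR internal control. 24h compound exposure, 37 °C/5% CO2, DMEM + 10% FBS. Readout: corrected green/red luminescence ratio, normalized to untreated cells; concentration-response curves fitted and classified.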

[11] = molecular target: RecQ-like DNA helicase BLM (Homo sapiens) (UniProt P54132); test: qHTS Validation Assay for Inhibitors of Bloom's syndrome helicase (BLM) (AID 2364); settings: BLM helicase DNA unwinding, fluorescence, in vitro; series mostly up to 57.1 µM; also: potency is read from the fitted curve at half-maximal effect
How it was run: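 50 nM BLM preincubated 15 min at room temperature with compound in pH 8.0 Tris buffer containing 2.5 ug/ml poly(dI-dC); started with 200 nM TAMRA/BHQ-2 forked duplex and 2 mM ATP (final). Unwinding read as TAMRA fluorescence increase, two reads 2 h apart.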

[12] = qHTS Validation Assay to Find Inhibitors of Chronic Active B-Cell Receptor Signaling (AID 485345; active = well fitted curve in the direction sought with a large enough effect in the main read-out, with a control signal flat, not every such curve was filed as active; inconclusive = small, poorly fitted or top-dose-only effect, or effect the other way, or a change in a side signal; inactive = no such curve, though single readings can be large or run the other way;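 also: 0% = untreated basal cells and 100% = 10 µM MG-132 proteasome inhibitor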); settings: ABC-DLBCL cells, chronic BCR signaling reporter, CBG luciferase; at 46.1 µM (top of the series)
How it was run: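 TMD8 ABC-DLBCL cells stably carrying doxycycline-inducible IkappaBalpha–green luciferase fusion plus unfused red luciferase; compounds 46 uM to 3 nM, 4 h at 37C with doxycycline. Corrected green/red luminescence ratio normalized to 10 uM MG-132 and basal cell wells; curves fitted.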

[13] = molecular target: ATP-dependent 6-phosphofructokinase (Trypanosoma brucei brucei) (UniProt O15648); test: qHTS Validation Assay to Find Inhibitors of T. brucei phosphofructokinase (AID 485368); settings: T. brucei PFK enzyme assay, qHTS 7-point titration; series mostly up to 57.5 µM
Chain of UniProt O15648 (O15648 whole entry, looked up): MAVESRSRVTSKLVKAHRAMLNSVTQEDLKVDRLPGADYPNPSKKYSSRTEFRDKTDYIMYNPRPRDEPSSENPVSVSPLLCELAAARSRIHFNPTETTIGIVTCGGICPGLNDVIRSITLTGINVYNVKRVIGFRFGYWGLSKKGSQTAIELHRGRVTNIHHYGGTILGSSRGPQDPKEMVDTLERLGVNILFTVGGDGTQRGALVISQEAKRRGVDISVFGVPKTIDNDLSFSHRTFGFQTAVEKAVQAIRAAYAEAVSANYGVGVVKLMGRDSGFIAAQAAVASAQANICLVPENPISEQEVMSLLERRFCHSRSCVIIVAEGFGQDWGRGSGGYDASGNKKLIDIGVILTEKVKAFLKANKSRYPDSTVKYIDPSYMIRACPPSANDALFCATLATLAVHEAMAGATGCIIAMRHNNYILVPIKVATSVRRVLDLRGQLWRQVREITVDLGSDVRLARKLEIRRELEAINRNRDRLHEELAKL
How it was run: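 Compounds (up to 57 uM, titration series) were pinned into substrate buffer, then 1.25 nM PFK added; after 45 min at room temperature, ADP product was quantified by ADP-Glo luminescence and concentration-response curves fitted.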

[14] = molecular target: Ubiquitin carboxyl-terminal hydrolase 1 (Homo sapiens) (UniProt O94782); test: Inhibitors of USP1/UAF1: Pilot qHTS (AID 504865); settings: purified USP1/UAF1, Ub-rhodamine cleavage fluorescence; series mostly up to 54.9 µM; also: potency is read from the fitted curve at half-maximal effect;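 also: rhodamine fluorescence freed from ubiquitin-rhodamine substrate followed over time; nearly all actives have a fitted effect of over 35% in size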; as to activity change, negative = inhibition: top concentration of the series differs between compounds; % is scaled to controls: 0 for no effect and ±100 for the full control effect
Chain of UniProt O94782 (O94782 whole entry, looked up): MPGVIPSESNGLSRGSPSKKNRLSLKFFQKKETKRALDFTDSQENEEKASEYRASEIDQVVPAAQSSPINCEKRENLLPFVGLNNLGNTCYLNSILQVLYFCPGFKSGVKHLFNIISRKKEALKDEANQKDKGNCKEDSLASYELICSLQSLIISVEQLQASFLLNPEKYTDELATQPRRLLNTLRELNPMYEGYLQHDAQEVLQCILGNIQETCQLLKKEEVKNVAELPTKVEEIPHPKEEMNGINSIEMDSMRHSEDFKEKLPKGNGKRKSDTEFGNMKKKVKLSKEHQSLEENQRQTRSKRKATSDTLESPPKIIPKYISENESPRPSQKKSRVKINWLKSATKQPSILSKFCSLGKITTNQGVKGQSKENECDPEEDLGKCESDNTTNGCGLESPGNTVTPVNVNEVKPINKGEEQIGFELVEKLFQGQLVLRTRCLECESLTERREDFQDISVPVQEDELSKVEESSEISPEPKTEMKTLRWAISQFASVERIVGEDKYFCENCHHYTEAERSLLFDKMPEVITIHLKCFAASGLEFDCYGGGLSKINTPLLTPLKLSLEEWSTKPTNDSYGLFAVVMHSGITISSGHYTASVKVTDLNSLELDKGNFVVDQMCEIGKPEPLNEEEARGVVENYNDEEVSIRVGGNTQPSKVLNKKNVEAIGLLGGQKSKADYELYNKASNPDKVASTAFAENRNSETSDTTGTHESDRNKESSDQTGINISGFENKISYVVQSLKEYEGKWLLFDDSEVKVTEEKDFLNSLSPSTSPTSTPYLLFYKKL
How it was run: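 1nM USP1/UAF1 + cpd, 15 min RT; start w/ Ub-Rho 150nM final; kinetic FL 480/540 nm, 6 reads q60 s. Buffer 50mM HEPES pH 7.8, 0.5mM EDTA, 1mM TCEP, 0.01% Tween-20, 0.1 mg/ml BSA.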

[15] = molecular target: Glucagon-like peptide 1 receptor (Homo sapiens) (UniProt P43220); test: qHTS of GLP-1 Receptor Agonists: LOPAC Validation (AID 624148); settings: GLP-1R agonist cell assay; series mostly up to 46.1 µM; also: potency is read from the fitted curve at half-maximal effect
Chain of UniProt P43220 (P43220 whole entry, looked up): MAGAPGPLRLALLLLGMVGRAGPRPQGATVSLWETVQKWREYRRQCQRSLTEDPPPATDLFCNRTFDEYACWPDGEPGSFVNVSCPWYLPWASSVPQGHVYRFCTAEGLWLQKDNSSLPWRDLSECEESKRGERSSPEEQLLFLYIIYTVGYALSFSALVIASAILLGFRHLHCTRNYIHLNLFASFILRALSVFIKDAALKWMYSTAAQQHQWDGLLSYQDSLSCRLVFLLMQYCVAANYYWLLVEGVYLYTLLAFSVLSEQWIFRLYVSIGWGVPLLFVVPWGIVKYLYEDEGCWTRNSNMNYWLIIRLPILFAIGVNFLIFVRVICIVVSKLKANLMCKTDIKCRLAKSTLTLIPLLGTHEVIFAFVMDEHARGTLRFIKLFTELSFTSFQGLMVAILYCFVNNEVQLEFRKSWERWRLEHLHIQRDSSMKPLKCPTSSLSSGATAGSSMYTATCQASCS
How it was run: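 HEK293 cells stably co-expressing GLP-1R and a cAMP-responsive luciferase reporter, plated 12 hours before compound, then incubated 4-6 hr at 37 deg C. Luminescence read 12 min after detection reagent.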

[16] = qHTS for Activators of Parkin Expression: LOPAC Validation Assay (NLuc Reporter) (AID 720572; also: potency is read from the fitted curve at half-maximal effect); settings: Parkin promoter NanoLuc reporter cells, luminescence; series mostly up to 46.1 µM
How it was run: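 Neuronal cells with a Parkin promoter-driven FLuc/NLuc coincidence reporter were treated 24 h at 37 C in 7-point dose response (LOPAC). NLuc luminescence read after FLuc; signals normalized to DMSO and positive control (100%).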

[17] = tested on: Zika virus NS2B-NS3 protease (unlinked); test: Optimization of GU AMC qHTS for Zika virus inhibitors: Unlinked NS2B-NS3 protease assay (AID 1347151); settings: recombinant ZIKV NS2B-NS3 protease, fluorogenic AMC substrate; activity change, negative = inhibition: at 52.5 µM (top of the series) unless noted; also: potency is read from the fitted curve at half-maximal effect; nearly all actives have a fitted effect of over 80% in size
How it was run: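 Fluorescence read-out (340 nm ex / 450 nm em) of AMC peptide cleavage, taken immediately and after 15 min at room temperature (~20% conversion). Enzyme was the unlinked NS2B–NS3 complex at 25 nM in Tris pH 8.0 buffer.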

[18] = molecular target: Lysine-specific demethylase 5B (Homo sapiens) (UniProt Q9UGL1); test: Optimization screen for KDM5B Histone Demethylases FDH coupled qHTS against the LOPAC library (AID 1347166); settings: KDM5B demethylation, FDH-coupled NADH fluorescence (FDH is formaldehyde dehydrogenase); activity, negative = inhibition: at 57.5 µM (top of the series) unless noted; also: potency is read from the fitted curve at half-maximal effect
Chain of UniProt Q9UGL1 (Q9UGL1 whole entry, looked up): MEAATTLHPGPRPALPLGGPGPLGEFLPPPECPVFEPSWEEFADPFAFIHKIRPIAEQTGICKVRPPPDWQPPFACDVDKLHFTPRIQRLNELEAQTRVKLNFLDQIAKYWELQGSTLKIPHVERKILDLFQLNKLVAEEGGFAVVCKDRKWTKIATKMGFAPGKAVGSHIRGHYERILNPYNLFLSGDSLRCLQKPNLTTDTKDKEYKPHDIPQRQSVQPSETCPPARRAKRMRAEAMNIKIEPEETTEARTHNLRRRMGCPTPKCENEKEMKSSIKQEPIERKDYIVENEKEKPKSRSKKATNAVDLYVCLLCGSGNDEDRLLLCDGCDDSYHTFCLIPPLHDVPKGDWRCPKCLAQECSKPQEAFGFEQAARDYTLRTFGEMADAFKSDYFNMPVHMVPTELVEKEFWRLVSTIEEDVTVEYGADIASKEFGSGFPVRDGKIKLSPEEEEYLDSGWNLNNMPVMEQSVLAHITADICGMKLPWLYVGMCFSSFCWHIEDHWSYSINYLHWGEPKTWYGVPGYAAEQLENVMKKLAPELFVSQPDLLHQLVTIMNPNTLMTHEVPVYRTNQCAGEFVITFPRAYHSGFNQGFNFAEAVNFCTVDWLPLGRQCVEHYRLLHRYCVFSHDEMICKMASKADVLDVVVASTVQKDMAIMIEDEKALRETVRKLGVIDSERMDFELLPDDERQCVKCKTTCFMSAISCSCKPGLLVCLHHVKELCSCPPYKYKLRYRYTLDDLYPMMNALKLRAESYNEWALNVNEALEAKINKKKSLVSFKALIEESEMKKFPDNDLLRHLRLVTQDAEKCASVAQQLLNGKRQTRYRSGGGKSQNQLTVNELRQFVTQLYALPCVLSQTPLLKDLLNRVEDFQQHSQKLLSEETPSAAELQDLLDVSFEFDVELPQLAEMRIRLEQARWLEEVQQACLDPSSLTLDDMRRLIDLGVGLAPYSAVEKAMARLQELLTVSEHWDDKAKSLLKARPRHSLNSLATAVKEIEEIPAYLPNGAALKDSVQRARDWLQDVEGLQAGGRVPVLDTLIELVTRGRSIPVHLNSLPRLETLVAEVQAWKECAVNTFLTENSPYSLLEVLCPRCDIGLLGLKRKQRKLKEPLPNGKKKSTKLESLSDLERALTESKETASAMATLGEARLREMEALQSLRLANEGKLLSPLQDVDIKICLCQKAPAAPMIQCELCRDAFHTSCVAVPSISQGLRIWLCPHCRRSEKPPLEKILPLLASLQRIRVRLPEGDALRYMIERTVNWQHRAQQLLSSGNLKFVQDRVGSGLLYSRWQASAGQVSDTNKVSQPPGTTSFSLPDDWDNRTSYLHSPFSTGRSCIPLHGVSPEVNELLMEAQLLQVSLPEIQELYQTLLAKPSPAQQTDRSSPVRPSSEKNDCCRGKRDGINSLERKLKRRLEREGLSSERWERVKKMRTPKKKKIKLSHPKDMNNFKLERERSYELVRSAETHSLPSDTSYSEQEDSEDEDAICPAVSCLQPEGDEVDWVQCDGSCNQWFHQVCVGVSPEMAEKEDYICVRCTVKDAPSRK
How it was run: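 KDM5BDeltaAP (200nM final) preincubated 10 min with compound, then 12.5uM H3K4Me3, 25uM a-ketoglutarate, ascorbate, Fe(II), NAD+ and FDH added; 50mM HEPES pH 7.5, 0.01% Tween-20. NADH fluorescence (340/450 nm) change over 30 min, room temperature.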

[19] = molecular target: Single-stranded DNA cytosine deaminase (Homo sapiens) (UniProt Q9GZX7); test: Validation qHTS assay for inhibitors of Activation Induced Cytidine Deaminase (AID): AID signal (AID 1347429); settings: Recombinant AID, FRET ssDNA deamination with UDG, fluorescence; series mostly up to 115 µM; also: % is scaled to controls: 0 for no effect and ±100 for the full control effect
Chain of UniProt Q9GZX7 (Q9GZX7 whole entry, looked up): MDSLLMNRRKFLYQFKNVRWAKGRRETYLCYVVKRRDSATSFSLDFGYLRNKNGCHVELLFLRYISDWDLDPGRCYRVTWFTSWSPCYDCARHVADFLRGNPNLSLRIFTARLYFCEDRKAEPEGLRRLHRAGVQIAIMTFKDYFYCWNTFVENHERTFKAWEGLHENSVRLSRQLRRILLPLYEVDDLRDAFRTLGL
How it was run: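 FRET deamination assay: 1 uM AID (4/3x stock) with UDG, compound up to 114 uM, then 250 nM DJC20/DJC23 substrate (4x stock) for 4 hr at room temperature. NaOH added, 30 min; fluorescence read 540/590 nm.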

Papain (Carica papaya) = Papain (Carica papaya) (UniProt P00784); test: Primary qHTS assay for inhibitors of the protease papain (AID 1645873); settings: papain Z-FR-AMC cleavage, AMC fluorescence; series mostly up to 49.8 µM
Chain of UniProt P00784 (P00784 whole entry, looked up): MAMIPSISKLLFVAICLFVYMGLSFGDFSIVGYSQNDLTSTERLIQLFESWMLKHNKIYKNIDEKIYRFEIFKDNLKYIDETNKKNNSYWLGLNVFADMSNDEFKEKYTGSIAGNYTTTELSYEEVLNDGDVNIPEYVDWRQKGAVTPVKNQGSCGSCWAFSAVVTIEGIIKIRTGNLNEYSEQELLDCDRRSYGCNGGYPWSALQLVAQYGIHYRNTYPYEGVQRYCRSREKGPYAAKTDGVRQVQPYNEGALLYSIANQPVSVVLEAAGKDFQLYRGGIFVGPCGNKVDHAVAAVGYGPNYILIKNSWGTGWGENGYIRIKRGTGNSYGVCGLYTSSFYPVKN
Tags tell the direction and shape of the fitted curve or compound fluorescence and quenching.

For `COC(=O)[C@H](NC(=O)c1cc(-c2ccccc2)nc2ccccc12)c1ccccc1`, which Potency [1] is on record?
The Potency was inconclusive: 9.51 µM [rising, partial curve].

And the Potency [2]?
The Potency was inconclusive: 8.91 µM [inhibitor, partial curve, poor fit].

And the activity change, negative = inhibition [3]?
Its activity change, negative = inhibition is inconclusive: -11.8% [phenotype inactive].

What about the Potency [4] of the same compound?
The Potency was inconclusive: 0.0794 µM [inhibitor, full curve, poor fit].

And the activity change, negative = inhibition [5]?
The activity change, negative = inhibition was inconclusive: 3.47%.

And the Potency [6]?
The Potency was inconclusive: 5.62 µM [inhibitor, full curve].

And the Potency [7]?
Its Potency is inconclusive: 14.1 µM [inhibitor, partial curve].

And the Potency [8]?
Its Potency is active: 12.6 µM.

What about the Potency [9] of the same compound?
The Potency was inconclusive: 11.2 µM [inhibitor, partial curve].

What about the Potency [10] of the same compound?
Its Potency is inconclusive: 84.9 µM [cytotoxic, single point].

What about the Potency [11] of the same compound?
The Potency was inconclusive: 6.31 µM [inhibitor, full curve].

And the activity change [12]?
The activity change was inconclusive: -43.4%.

What about the Potency [13] of the same compound?
Its Potency is “inactive”.

And the Potency [14]?
Its Potency is “inactive and inconclusive: 12.6 µM [inhibitor, partial curve, poor fit]”.

What about the Potency [15] of the same compound?
The Potency was inconclusive: 16.4 µM [activator, single point].

What about the Potency [16] of the same compound?
Its Potency is inconclusive: 20.6 µM [activator, single point].

What about the Potency [17] of the same compound?
Its Potency is active: 23.8 µM.

What about the Potency [18] of the same compound?
Its Potency is inconclusive: 28.2 µM [inhibitor, partial curve, poor fit].

And the Potency [19]?
Its Potency is “inactive”.

What about the Potency (Papain (Carica papaya)) of the same compound?
The Potency was inconclusive: 35.5 µM [inhibitor, single point].
